Experimental data from PubChem BioAssay AID686978 (National Center for Advancing Translational Sciences (NCATS), 2013).
In all, about 420,000 compounds went through this assay and about 64,000 (15%) were called active. The inconclusive results got no clear call from the source; some entries with a clear call stand among them for comparison. Calls come from the whole dose curve; as a rule, active = well fitted inhibition curve with a large enough effect; inconclusive = small, poorly fitted or top-dose-only effect; inactive = flat fitted curve, though single readings scatter. Potencies of inconclusive entries are left out as doubtful fits.

Experiment: qHTS for Inhibitors of human tyrosyl-DNA phosphodiesterase 1 (TDP1): qHTS in cells in absence of CPT; note: nearly all actives have a fitted effect of over 55% in size
Conditions: DT40 Tdp1-/- hTDP1 cells, no CPT, ATP luminescence, 48 h; activity change, negative = growth inhibition: at 46.2 µM (top of the series) unless noted
How it was run: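 Growth of hTDP1-complemented DT40 Tdp1-knockout cells is measured by ATP luminescence after at least 48 hr compound exposure at 37 °C, with DMSO substituting for the 20 nM CPT used in the parallel screen.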
% is set by controls: 0 for no effect and ±100 for the full control effect; potency is the fitted concentration of half-maximal effect; tags give direction and shape of the fitted curve.

Row | Compound | Potency | activity change, negative = growth inhibition
1 | COc1cccc(Cn2cnc(-c3ccccc3OC)c2-c2cccnc2)c1 | inconclusive [inhibitor, partial curve, poor fit] | –
2 | COCCCn1c(=O)c2ccccc2n(CC(=O)N2CCCc3ccccc32)c1=O | inconclusive [inhibitor, single point] | –
3 | CCCN(CC(=O)Nc1ccccc1C)C(=O)COC(=O)CSc1ccc([N+](=O)[O-])cc1 | – | inactive: 0.288%
4 | CCc1ccc(/C=C2\SC(=S)N(CCC(=O)N3CCN(C)CC3)C2=O)cc1 | inconclusive [inhibitor, partial curve] | –
5 | CS(=O)(=O)N(Cc1ccc(C(=O)NN=C2CCCC2)cc1)c1ccccc1 | inconclusive [inhibitor, single point] | –
6 | OCCN(Cc1ccccc1)CC(O)COc1ccc2c(c1)OCO2 (centres undefined) | – | inactive: -1.83%
7 | CCN(CC)S(=O)(=O)c1cccc(C(=O)N[C@H](C(=O)NCc2ccccc2F)C(C)C)c1 | inconclusive [inhibitor, single point] | –
8 | CC(OC(=O)c1cnccn1)C(=O)Nc1nc(-c2cccc([N+](=O)[O-])c2)cs1 (centres undefined) | inconclusive [inhibitor, single point] | –
9 | O=C(NN1CCOCC1)NC12CC3CC(CC(C3)C1)C2 | – | inactive: -32.9%
10 | O=C(N[C@@H](Cc1ccccc1)C(=O)OCc1ccccc1)c1nc[nH]c1C(=O)NCc1ccccc1 | inconclusive [inhibitor, single point] | –
11 | CN1CCN(C(=O)c2ccc3c(=O)n(Cc4ccc(Cl)cc4)c(=S)[nH]c3c2)CC1 | inconclusive [inhibitor, single point] | –
12 | Cc1c(C(=O)NCCSCc2ccc(F)cc2)cnn1-c1ccc(Cl)cc1 | inconclusive [inhibitor, single point] | –
13 | CC(C)C1CC(CCN2CCCCC2)(c2ccccc2)CCO1 (centres undefined) | inconclusive [inhibitor, single point] | –
14 | O=C(COc1ccccc1)NCC(=O)Nc1cccc2ccccc12 | – | inactive: -21.3%
15 | N#Cc1c(-c2cccnc2)cc(-c2ccccc2)nc1N | inconclusive [inhibitor, single point] | –
16 | COc1ccc(-c2nn(-c3ccccc3)cc2C(=O)n2nnc3ccccc32)cc1 | – | inactive: -43.6%
17 | Cc1cccc(NC(=O)CSc2nc3ccccc3nc2N2CCOCC2)c1C | – | inconclusive: -33.4% [inhibitor]
18 | O=C1c2ccccc2C(Nc2ccc3c(c2)OCO3)N1Cc1ccc2c(c1)OCO2 (centres undefined) | active: 14.6 µM | –
19 | CCC(C)Sc1ccc(-c2nc3ccc(C)cn3c2NCc2ccccc2)cc1OC (centres undefined) | active: 16.4 µM | –
20 | CCCSc1ccc([C@@H]2[C@H]3C(=O)N(CC)C(=O)[C@H]3[C@]3(C(=O)OC)CCCCN23)cc1 | active: 16.4 µM | –
21 | COc1ccc(-c2coc3c(C(=O)NCC(C)C)cccc23)c(C)c1 | inconclusive [inhibitor, single point] | –
22 | Cc1ccc(/C=C2\SC(N3CCCCC3)=NC2=O)cc1 | inconclusive [inhibitor, partial curve] | –
23 | Cc1ccc(C(=O)Oc2coc(CSc3nnc(NC(=O)c4cccs4)s3)cc2=O)cc1C | – | inconclusive: -30.2% [inhibitor]

Row | Compound | Potency | activity change, negative = growth inhibition
24 | CCCCCCn1c(Br)nc2c1c(=O)n(C)c(=O)n2C | inconclusive [inhibitor, partial curve, poor fit] | –
25 | NC(=O)CC(NC(=O)Cc1cccc2ccccc12)c1ccc(NCCN2CCCC2)c([N+](=O)[O-])c1 (centres undefined) | – | inactive: -0.715%
26 | CCc1nc2ccc(C(=O)NCc3cccs3)cn2c1N(C)Cc1nccs1 | active: 20.6 µM | –
27 | O=C1C2C3C=CC(CC3)C2C(=O)N1c1ccccc1[N+](=O)[O-] (centres undefined) | – | inactive: -27.4%
28 | COc1cc(SC)ccc1C(=O)OCC(=O)NC1CCCCC1 | – | inconclusive: -30.5% [inhibitor]
29 | CCOCCn1ccc2c(OCC(=O)Nc3ccccc3F)cccc2c1=O | inconclusive [inhibitor, single point] | –
30 | CCOC(=O)c1c(-c2ccc(OC)cc2)oc2ccc(OCc3ccc(Br)cc3)cc12 | inconclusive [inhibitor, partial curve] | –
31 | CCOC(=O)C1=C(c2ccccc2)OC(N)=C(C#N)C1c1ccncc1 (centres undefined) | inconclusive [inhibitor, single point] | –
32 | CCc1cnc2c(c1SCC(=O)c1ccc(Cl)cc1)c(=O)n(C)c(=O)n2C | active: 20.6 µM | –
33 | COc1ccc(Cn2c(=O)c3cccnc3n(CC(=O)Nc3c(C)cc(C)cc3C)c2=O)cc1 | inconclusive [inhibitor, single point] | –
34 | COc1ccc(OCCSc2nnc3c(Cl)cc(Cl)cn23)cc1 | inconclusive [inhibitor, partial curve] | –
35 | COc1ccc([C@H]2N[C@]3(CCCN(Cc4ccc(F)cc4)C3=O)[C@H]3C(=O)N(C)C(=O)[C@@H]23)cc1 | – | inactive: -25.3%
36 | Cc1ccc(C23CC4CC(CC(C(=O)N5CCOCC5)(C4)C2)C3)cc1 | inconclusive [inhibitor, single point] | –
37 | CC(=O)c1ccc(NC(=O)[C@@H]2CCCN2C(=O)OC(C)(C)C)cc1 | – | inconclusive: -26.9% [inhibitor]
38 | O=C(Nc1cccc(C(F)(F)F)c1)c1cc(-c2ccc3c(c2)OCCO3)on1 | inconclusive [inhibitor, partial curve, poor fit] | –
39 | Cn1c(=O)c2c(ncn2CC(=O)Nc2nccs2)n(C)c1=O | – | inactive: -0.197%
40 | Cc1ccc(C)c(SCC(=O)Nc2cc(S(=O)(=O)N3CCOCC3)ccc2C)c1 | inconclusive [inhibitor, single point] | –
41 | COc1ccccc1-c1cc(C(=O)Nc2cc(C)nn2-c2ccccc2)no1 | active: 25.9 µM | –
42 | Cc1ccc(N(CC(=O)Nc2ccc(Br)cc2)S(=O)(=O)c2cccs2)cc1 | – | inactive: -22.7%
43 | CC1(C(=O)Nc2cnc3ccccc3c2)CCN1C(=O)c1ccccc1CCc1ccccc1 (centres undefined) | inconclusive [inhibitor, single point] | –
44 | CC(C)c1c(C(=O)N/N=C/c2ccccc2OCc2c(F)cccc2Cl)nnn1-c1nonc1N | active: 2.31 µM | –
45 | CCn1c(Sc2nc(C)nc3scc(-c4cccs4)c23)n[nH]c1=O | inconclusive [inhibitor, single point] | –
46 | COc1ccc(Nc2oc(-c3ccccc3Cl)nc2C#N)cc1 | inconclusive [inhibitor, full curve] | –

Row | Compound | Potency | activity change, negative = growth inhibition
47 | CC[C@]12c3[nH]c4cc(CCC(=O)N(C)C)ccc4c3CCN1C(=O)[C@@H](CC(=O)NCc1cccc(C(F)(F)F)c1)C[C@@H]2C(=O)N1CCN(C(=O)C2CC2)CC1 | inconclusive [inhibitor, single point] | –
48 | Cc1ccccc1C(=O)NC(CC(C)C)C(=O)Nc1ccc(F)c([N+](=O)[O-])c1 (centres undefined) | inconclusive [inhibitor, single point] | –
49 | COc1cc(/C=C/c2cc(C(=O)O)c3ccccc3n2)cc(OC)c1O | inconclusive [inhibitor, single point] | –
50 | O=C(NCCc1ccc(F)cc1)C(=O)NCC(c1ccco1)S(=O)(=O)c1cccs1 (centres undefined) | inconclusive [inhibitor, partial curve] | –
51 | CCOc1ccccc1OCC(=O)Nc1cccc(S(=O)(=O)N2CCCCCC2)c1 | inconclusive [inhibitor, single point] | –
52 | CS(=O)(=O)c1ccc(NCCc2ccc(S(N)(=O)=O)cc2)c([N+](=O)[O-])c1 | – | inconclusive: -30.5% [inhibitor]
53 | COc1cc(OC)cc(C(=O)N2CC(=O)Nc3ccc(Cl)cc3C2c2ccccc2)c1 (centres undefined) | inconclusive [inhibitor, single point] | –
54 | CCNC(=S)N=Nc1c(O)[nH]c2ccc(C(C)C)cc12 | active: 5.17 µM | –
55 | COc1cccc(C(=O)NCCS(=O)(=O)NC(C)CCc2ccccc2)c1 (centres undefined) | active: 6.51 µM | –
56 | CC(C)CCNC(=O)CCC(=O)NNc1nc2ccccc2c2nc(-c3ccccc3)nn12 | active: 20.6 µM | –
57 | O=C(c1ccc(-c2nnc(-c3ccccc3)o2)cc1)N1CCCCCC1 | active: 17.8 µM | –
58 | Cc1ccc(C)c(/C=N/Nc2ccccn2)c1 | – | inactive: -11.1%
59 | CCC1Nc2ncnc(N3CCOCC3)c2N(Cc2ccc(OC)cc2)C1=O (centres undefined) | inconclusive [inhibitor, single point] | –
60 | COc1ccc(OC2C(=O)N(Cc3ccc(F)cc3)C2c2ccc(OC)c(OC)c2)cc1 (centres undefined) | – | inactive: -12.3%
61 | CN1CCN(CC(O)COC(c2ccccc2)c2ccccc2)CC1 (centres undefined) | – | inactive: -13.6%
62 | Cc1cc(C)nc(SCc2nnc(SCC(=O)Nc3ccc(C)c(C)c3)n2Cc2ccco2)n1 | inconclusive [inhibitor, single point] | –
63 | CCOc1cccc(-c2c(C(=O)N/N=C/c3sccc3C)nnn2-c2nonc2N)c1 | inconclusive [inhibitor, single point] | –
64 | CCCc1nc2c3ccccc3ccn2c1Cc1ccc(C)cc1 | inconclusive [inhibitor, single point] | –
65 | COc1ccccc1CNS(=O)(=O)c1cc(C(=O)N(C)Cc2cccnc2)c(Cl)cc1Cl | inconclusive [inhibitor, single point] | –
66 | C(=N\Nc1nc2ccccc2[nH]1)/c1ccncc1 | – | inactive: -26.9%
67 | Brc1cccc(-c2cnn3c(-c4ccccc4)cc(-c4ccccc4)nc23)c1 | – | inactive: -8.89%
68 | O=C(CSc1nnnn1-c1ccccc1)Nc1ccc(Cl)cc1 | – | inactive: -22.8%
69 | Oc1c(Cl)cc(Oc2cc(Cl)c(O)c(CN3CCOCC3)c2)cc1CN1CCOCC1 | inconclusive [inhibitor, single point] | –
